This note sets out measurements from patent publication US20230414771A1, “PREPARATION AND USE OF IMMUNOSTIMULATORY CONJUGATED COMPLEXES FOR TARGETED DELIVERY AND ACTIVATION” (YAFEI SHANGHAI BIOLOGY MEDICINE SCIENCE & TECHNOLOGY CO., …, priority 2020, published 2023).

*1 amine or outer side, *2 acyl side, *3 side chain or, on linkers, in order; H or OH if unused. Where a SMILES comes first, the peptide text is derived from it. [ ]: non-standard residue; d: D form. The star is where a group is joined. ξ: configuration not given here. Doxorubicin(3'-N) = COc1cccc2c1C(=O)c1c(O)c3c(c(O)c1C2=O)C[C@@](O)(C(=O)CO)C[C@@H]3O[C@H]1C[C@H](N*)[C@H](O)[C@H](C)O1; X7 = CO[C@@]12[C@H](COC(N)=O)C3=C(C(=O)C(C)=C(N*)C3=O)N1C[C@@H]1N[C@@H]12; X6 = C[C@@]12C=CC(=O)C=C1CC[C@H]1C2C(=O)C[C@]2(C)C1CC[C@@]2(O)C(=O)CO*; X10 = CN(CCNC(=O)c1cc(Oc2ccc(NC(=O)Nc3ccc(Cl)c(C(F)(F)F)c3)cc2)ccn1)*; MaleimidoPEG4propanoyl = O=C1C=CC(=O)N1CCOCCOCCOCCOCCC(=O)*; X4 = [NH3+][Pt-2]1([NH3+])[O]C(=O)C2(CN(*)C2)C(=O)[O]1; Hexanoyl(6-maleimido) = O=C1C=CC(=O)N1CCCCCC(=O)*; Butanoyl(4-maleimido) = O=C1C=CC(=O)N1CCCC(=O)*; Propanoyl(3-maleimido) = O=C1C=CC(=O)N1CCC(=O)*; Maleimidoacetyl = O=C1C=CC(=O)N1CC(=O)*; X1 = O=C1C=CC(=O)N1CCOCCOCCOCCC(=O)*; PABC = O=C(OCc1ccc(N[*:1])cc1)[*:2]; PEG6 = NCCOCCOCCOCCOCCOCCOCCC(=O)O; PEG4 = NCCOCCOCCOCCOCCC(=O)O; PEG3 = NCCOCCOCCOCCC(=O)O; ξE = NC(CCC(=O)O)C(=O)O; PEG2 = NCCOCCOCCC(=O)O; ξN = NC(=O)CC(N)C(=O)O; ξL = CC(C)CC(N)C(=O)O

This data set in a line: Water solubility test (observation and HPLC). It counts as physicochemical. The following applies: thermodynamic from solid; lyophilized compound dissolved in water; checked by observation and HPLC (>95%). How it is done:
The compounds prepared in accordance with the examples of the disclosure and the reference compounds C1, C2, C3 and C4 were lyophilized (−70° C.).
The solubility is the dissolved amount per volume that the medium holds. Lower therefore signals a poorly soluble substance. In turn, `COc1cccc2c1C(=O)c1c(O)c3c(c(O)c1C2=O)C[C@@](O)(C(=O)CO)C[C@@H]3O[C@H]1C[C@H](NC(=O)[C@H](CC(C)C)NC(=O)[C@H](CC(N)=O)NC(=O)[C@H](C)NC(=O)[C@H](C)NC(=O)[C@H](CCC(=O)O)NC(=O)CCOCCOCCOCCNC(=O)CCCN2C(=O)C=CC2=O)[C@H](O)[C@H](C)O1` [QHL-069-DOX] ({Butanoyl(4-maleimido)-PEG3}-EAANL-{Doxorubicin(3'-N)}) gave a solubility of over 25000 µg/mL.
On to `COc1cccc2c1C(=O)c1c(O)c3c(c(O)c1C2=O)C[C@@](O)(C(=O)CO)C[C@@H]3O[C@H]1C[C@H](NC(=O)[C@H](CC(C)C)NC(=O)[C@H](CC(N)=O)NC(=O)[C@H](C)NC(=O)[C@H](C)NC(=O)CCOCCOCCOCCOCCNC(=O)CCN2C(=O)C=CC2=O)[C@H](O)[C@H](C)O1` [QHL-093-DOX] ({Propanoyl(3-maleimido)-PEG4}-AANL-{Doxorubicin(3'-N)}), for which the solubility was over 20000 µg/mL.
As for `COc1cccc2c1C(=O)c1c(O)c3c(c(O)c1C2=O)C[C@@](O)(C(=O)CO)C[C@@H]3O[C@H]1C[C@H](NC(=O)[C@H](CC(C)C)NC(=O)[C@H](CC(N)=O)NC(=O)[C@H](C)NC(=O)[C@H](C)NC(=O)[C@H](CC(C)C)NC(=O)CCCCCN2C(=O)C=CC2=O)[C@H](O)[C@H](C)O1` [QHL-124-DOX] ({Hexanoyl(6-maleimido)}-LAANL-{Doxorubicin(3'-N)}), the figure is over 5000 µg/mL; as for `COc1cccc2c1C(=O)c1c(O)c3c(c(O)c1C2=O)C[C@@](O)(C(=O)CO)C[C@@H]3O[C@H]1C[C@H](NC(=O)[C@H](CC(C)C)NC(=O)[C@H](CC(N)=O)NC(=O)[C@H](C)NC(=O)[C@H](C)NC(=O)[C@H](CC(=O)O)NC(=O)CCOCCOCCOCCOCCOCCOCCNC(=O)CCN2C(=O)C=CC2=O)[C@H](O)[C@H](C)O1` [QHL-060-DOX] ({Propanoyl(3-maleimido)-PEG6}-DAANL-{Doxorubicin(3'-N)}), over 25000 µg/mL.
The result for `COc1cccc2c1C(=O)c1c(O)c3c(c(O)c1C2=O)C[C@@](O)(C(=O)CO)C[C@@H]3O[C@H]1C[C@H](NC(=O)[C@H](CC(C)C)NC(=O)[C@H](CC(N)=O)NC(=O)[C@H](C)NC(=O)[C@H](C)NC(=O)[C@H](Cc2c[nH]cn2)NC(=O)CCCCCN2C(=O)C=CC2=O)[C@H](O)[C@H](C)O1` [QHL-137-DOX] ({Hexanoyl(6-maleimido)}-HAANL-{Doxorubicin(3'-N)}) reads over 5000 µg/mL; that for `COc1cccc2c1C(=O)c1c(O)c3c(c(O)c1C2=O)C[C@@](O)(C(=O)CO)C[C@@H]3O[C@@H]1C[C@H](NC(=O)OCc2ccc(NC(=O)[C@@H](CC(N)=O)NC(=O)[C@@H](C)NC(=O)[C@@H](C)NC(=O)CCOCCOCCNC(=O)CCN3C(=O)C=CC3=O)cc2)[C@@H](O)[C@H](C)O1` [QHL-086-epirubicin], over 20000 µg/mL.
As for `C[C@H](NC(=O)[C@H](C)NC(=O)[C@H](CC(=O)O)NC(=O)CCCCCN1C(=O)C=CC1=O)C(=O)N[C@@H](CC(N)=O)C(=O)Nc1ccc(COC(=O)OCC(=O)[C@]2(O)CCC3[C@H]4CCC5=CC(=O)C=C[C@@]5(C)C4C(=O)C[C@]32C)cc1` (stereo partly shown) [QHL-119-prednisone] ({Hexanoyl(6-maleimido)}-DAAN[PABC]-X6), the solubility is over 10000 µg/mL.
For the molecule `COc1cccc2c1C(=O)c1c(O)c3c(c(O)c1C2=O)C[C@@](O)(C(=O)CO)C[C@@H]3O[C@H]1C[C@H](NC(=O)[C@H](CC(C)C)NC(=O)[C@H](CC(N)=O)NC(=O)[C@H](C)NC(=O)[C@H](C)N)[C@H](O)[C@H](C)O1` [AANL-DOX, reference compound] (H-AANL-{Doxorubicin(3'-N)}), the solubility was under 1000 µg/mL.
With `CC(C)CC(NC(=O)C(CC(N)=O)NC(=O)C(C)NC(=O)C(C)NC(=O)CN1C(=O)C=CC1=O)C(=O)N1CC2(C1)C(=O)[O][Pt-2]([NH3+])([NH3+])[O]C2=O` (stereo not shown) [QHL-144-N-CBP] (Maleimidoacetyl-AANL-X4; configuration not given here), the solubility is over 10000 µg/mL.
In turn, `CO[C@@]12[C@@H]3N[C@@H]3CN1C1=C(C(=O)C(NC(=O)OCc3ccc(NC(=O)[C@@H](CC(N)=O)NC(=O)[C@@H](C)NC(=O)[C@@H](C)NC(=O)CCOCCOCCNC(=O)CCN4C(=O)C=CC4=O)cc3)=C(C)C1=O)[C@@H]2COC(N)=O` [QHL-086-mitomycin] returned a solubility of over 20000 µg/mL.
In the case of `COc1cccc2c1C(=O)c1c(O)c3c(c(O)c1C2=O)C[C@@](O)(C(=O)CO)C[C@@H]3O[C@H]1C[C@H](NC(=O)[C@H](CC(C)C)NC(=O)[C@H](CC(N)=O)NC(=O)[C@H](C)NC(=O)[C@H](C)NC(=O)[C@H](CS)NC(=O)CCCCCN2C(=O)C=CC2=O)[C@H](O)[C@H](C)O1` [QHL-131-DOX] ({Hexanoyl(6-maleimido)}-CAANL-{Doxorubicin(3'-N)}), the solubility is over 10000 µg/mL.
Regarding `COc1cccc2c1C(=O)c1c(O)c3c(c(O)c1C2=O)C[C@@](O)(C(=O)CO)C[C@@H]3O[C@H]1C[C@H](NC(=O)[C@H](CC(C)C)NC(=O)[C@H](CC(N)=O)NC(=O)[C@H](C)NC(=O)[C@H](C)NC(=O)CCOCCOCCOCCOCCN2C(=O)C=CC2=O)[C@H](O)[C@H](C)O1` [QHL-011-DOX] (MaleimidoPEG4propanoyl-AANL-{Doxorubicin(3'-N)}), the solubility is over 15000 µg/mL.
As for `CC(NC(=O)CCOCCOCCNC(=O)CCCN1C(=O)C=CC1=O)C(=O)NC(C)C(=O)NC(CC(N)=O)C(=O)Nc1ccc(COC(=O)N2CC3(C2)C(=O)[O][Pt-2]([NH3+])([NH3+])[O]C3=O)cc1` (stereo not shown) [QHL-098-N-CBP], the figure is over 20000 µg/mL.
Turning to `C[C@H](NC(=O)CCCCCN1C(=O)C=CC1=O)C(=O)N[C@@H](C)C(=O)N[C@@H](CC(N)=O)C(=O)Nc1ccc(COC(=O)OCC(=O)[C@]2(O)CCC3[C@H]4CCC5=CC(=O)C=C[C@@]5(C)C4C(=O)C[C@]32C)cc1` (stereo partly shown) [QHL-140-prednisone], the solubility was over 10000 µg/mL.
The result for `COc1cccc2c1C(=O)c1c(O)c3c(c(O)c1C2=O)C[C@@](O)(C(=O)CO)C[C@@H]3O[C@H]1C[C@H](NC(=O)[C@H](CC(C)C)NC(=O)[C@H](CC(N)=O)NC(=O)[C@H](C)NC(=O)[C@H](C)NC(=O)[C@H](CC(N)=O)NC(=O)CCCCCN2C(=O)C=CC2=O)[C@H](O)[C@H](C)O1` [QHL-133-DOX] ({Hexanoyl(6-maleimido)}-NAANL-{Doxorubicin(3'-N)}) reads over 2000 µg/mL.
As for `COc1cccc2c1C(=O)c1c(O)c3c(c(O)c1C2=O)C[C@@](O)(C(=O)CO)C[C@@H]3O[C@H]1C[C@H](NC(=O)[C@H](CC(C)C)NC(=O)[C@H](CC(N)=O)NC(=O)[C@H](C)NC(=O)[C@H](C)NC(=O)CNC(=O)CCCCCN2C(=O)C=CC2=O)[C@H](O)[C@H](C)O1` [QHL-121-DOX] ({Hexanoyl(6-maleimido)}-GAANL-{Doxorubicin(3'-N)}), the figure is over 10000 µg/mL; as for `C[C@H](NC(=O)C(CCC(=O)O)NC(=O)CCCCCN1C(=O)C=CC1=O)C(=O)N[C@@H](C)C(=O)N[C@@H](CC(N)=O)C(=O)Nc1ccc(COC(=O)OCC(=O)[C@]2(O)CCC3[C@H]4CCC5=CC(=O)C=C[C@@]5(C)C4C(=O)C[C@]32C)cc1` (stereo partly shown) [QHL-116-prednisone] ({Hexanoyl(6-maleimido)}-[ξE]AAN[PABC]-X6), over 10000 µg/mL; as for `COc1cccc2c1C(=O)c1c(O)c3c(c(O)c1C2=O)C[C@@](O)(C(=O)CO)C[C@@H]3O[C@H]1C[C@H](NC(=O)[C@H](CC(C)C)NC(=O)[C@H](CC(N)=O)NC(=O)[C@H](C)NC(=O)[C@H](C)NC(=O)CCOCCOCCOCCNC(=O)CCCN2C(=O)C=CC2=O)[C@H](O)[C@H](C)O1` [QHL-102-DOX] ({Butanoyl(4-maleimido)-PEG3}-AANL-{Doxorubicin(3'-N)}), over 10000 µg/mL.
In turn, `CC(C)C[C@H](NC(=O)[C@H](CC(N)=O)NC(=O)[C@H](C)NC(=O)[C@H](C)NC(=O)CCOCCOCCNC(=O)CCCN1C(=O)C=CC1=O)C(=O)N1CC2(C1)C(=O)[O][Pt-2]([NH3+])([NH3+])[O]C2=O` [QHL-099-N-CBP] ({Butanoyl(4-maleimido)-PEG2}-AANL-X4) came in with a solubility of over 10000 µg/mL.
The molecule `C[C@H](NC(=O)CCOCCOCCOCCOCCNC(=O)CCN1C(=O)C=CC1=O)C(=O)N[C@@H](C)C(=O)NC(CC(N)=O)C(=O)Nc1ccc(COC(=O)OCC(=O)[C@]2(O)CCC3[C@H]4CCC5=CC(=O)C=C[C@@]5(C)C4C(=O)C[C@]32C)cc1` (stereo partly shown) [QHL-092-prednisone] had a solubility of over 10000 µg/mL.
In turn, `COc1cccc2c1C(=O)c1c(O)c3c(c(O)c1C2=O)C[C@@](O)(C(=O)CO)C[C@@H]3O[C@H]1C[C@H](NC(=O)[C@H](CC(C)C)NC(=O)[C@H](CC(N)=O)NC(=O)[C@H](C)NC(=O)[C@H](C)NC(=O)[C@H](CC(=O)O)NC(=O)CCOCCOCCOCCN2C(=O)C=CC2=O)[C@H](O)[C@H](C)O1` [QHL-034-DOX] (X1-DAANL-{Doxorubicin(3'-N)}) registered a solubility of over 20000 µg/mL.
As to `CO[C@@]12[C@H](COC(N)=O)C3=C(C(=O)C(C)=C(NC(=O)[C@H](CC(C)C)NC(=O)[C@H](CC(N)=O)NC(=O)[C@H](C)NC(=O)[C@H](C)NC(=O)CCOCCOCCOCCNC(=O)CCN4C(=O)C=CC4=O)C3=O)N1C[C@@H]1N[C@@H]12` [QHL-090-mitomycin] ({Propanoyl(3-maleimido)-PEG3}-AANL-X7), the solubility is over 10000 µg/mL.
`C[C@H](NC(=O)CCOCCOCCOCCOCCOCCOCCN1C(=O)C=CC1=O)C(=O)N[C@@H](C)C(=O)NC(CC(N)=O)C(=O)Nc1ccc(COC(=O)OCC(=O)[C@]2(O)CCC3[C@H]4CCC5=CC(=O)C=C[C@@]5(C)C4C(=O)C[C@]32C)cc1` (stereo partly shown) [QHL-008-prednisone] returned a solubility of over 10000 µg/mL.
In the case of `COc1cccc2c1C(=O)c1c(O)c3c(c(O)c1C2=O)C[C@@](O)(C(=O)CO)C[C@@H]3O[C@H]1C[C@H](NC(=O)[C@H](CC(C)C)NC(=O)[C@H](CC(N)=O)NC(=O)[C@H](C)NC(=O)[C@H](C)NC(=O)[C@H](CCC(N)=O)NC(=O)CCCCCN2C(=O)C=CC2=O)[C@H](O)[C@H](C)O1` [QHL-134-DOX] ({Hexanoyl(6-maleimido)}-QAANL-{Doxorubicin(3'-N)}), the solubility is over 5000 µg/mL.
`CC(C)CC(NC(=O)C(CC(N)=O)NC(=O)[C@@H](C)NC(=O)[C@@H](C)NC(=O)CCOCCOCCOCCNC(=O)CCN1C(=O)C=CC1=O)C(=O)N(C)CCNC(=O)c1cc(Oc2ccc(NC(=O)Nc3ccc(Cl)c(C(F)(F)F)c3)cc2)ccn1` (stereo partly shown) [QHL-090-compound a] ({Propanoyl(3-maleimido)-PEG3}-[dA][dA][ξN][ξL]-X10) showed a solubility of over 10000 µg/mL.
